# Several values for one entry are separate records, joined by “and”; a condition that tells them apart may be missing. Identical values can stand only once. This list was built around the results that the source calls inconclusive (neither active nor inactive); the mix of calls is not that of the screen. The call rests on the fitted dose curve; in most records, active means well fitted cell-killing curve with a large enough effect in the repeat runs (not every such curve was filed as active); inconclusive means weak or mixed curves, or effect the other way; inactive means no such curve, though single readings can be large or run the other way. Where the call is inconclusive, the potency comes from a doubtful curve fit.
# Test: qHTS assay to identify small molecule antagonists of the estrogen related receptor signaling pathway with the pleiotropic PPARgamma coactivator (PGC) from Tox21 10K library - cell viability counter screen (AID 1224840); further: nearly all actives have a fitted effect of over 40% in size
# Settings: PGC/ERR reporter cells viability, CellTiter-Fluor, 17.5 h; series mostly up to 92.4 µM
# Outline: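 Viability counter screen, PGC/ERR cells: 17.5 h compound exposure at 37 C, CellTiter-Fluor fluorescence endpoint.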
# Potency means the concentration at half of the fitted maximal effect; tags describe the fitted curve by direction and shape.
row,Structure (SMILES),Potency
1,CCCc1ccc(OCC(=O)N2CCN(C(=O)COc3ccc(CCC)cc3OC)CC2)c(OC)c1,"inconclusive: 33.5 µM [cytotoxic, single point]"
2,Cc1nc(N)nc(N)c1-c1ccc(Cl)c(Cl)c1,"inconclusive: 13.3 µM [cytotoxic, partial curve, poor fit]"
3,COCCOC,"inconclusive: 1.46 µM [cytotoxic, full curve]"
4,COCCOC(=O)C1=C(C)NC(C)=C(C(=O)OC/C=C/c2ccccc2)C1c1cccc([N+](=O)[O-])c1 (centres undefined),"inconclusive: 33.5 µM [cytotoxic, single point]"
5,CS(=O)(=O)Nc1ccc([N+](=O)[O-])cc1Oc1ccccc1,"inconclusive: 21.7 µM [cytotoxic, full curve] and inconclusive: 33.5 µM [cytotoxic, partial curve, poor fit]"
6,c1ccc(C[P+](c2ccccc2)(c2ccccc2)c2ccccc2)cc1,"inconclusive: 7.7 µM [cytotoxic, full curve]"
7,c1csc(SSc2cccs2)c1,"inconclusive: 68.6 µM [cytotoxic, single point]"
8,C[C@]12CC[C@@H]3c4ccc(O)cc4CC[C@H]3[C@@H]1CC[C@H]2O,"inconclusive: 21.7 µM [cytotoxic, full curve]"
9,CC[C@@H]([C@H](C)O)n1ncn(-c2ccc(N3CCN(c4ccc(OC[C@@H]5CO[C@@](Cn6cncn6)(c6ccc(F)cc6F)C5)cc4)CC3)cc2)c1=O,inconclusive: 9.44 µM [cytotoxic]

# From PubChem BioAssay (Tox21)
